# Experimental data published in the supplement of paper PMC8728848.
# The other results are listed elsewhere or left out.
# B1: Annexin-A1 (Mus musculus), P10107 (protein)
# chain: MAMVSEFLKQARFLENQEQEYVQAVKSYKGGPGSAVSPYPSFNVSSDVAALHKAIMVKGVDEATIIDILTKRTNAQRQQIKAAYLQENGKPLDEVLRKALTGHLEEVVLAMLKTPAQFDADELRGAMKGLGTDEDTLIEILTTRSNEQIREINRVYREELKRDLAKDITSDTSGDFRKALLALAKGDRCQDLSVNQDLADTDARALYEAGERRKGTDVNVFTTILTSRSFPHLRRVFQNYGKYSQHDMNKALDLELKGDIEKCLTTIVKCATSTPAFFAEKLYEAMKGAGTRHKALIRIMVSRSEIDMNEIKVFYQKKYGISLCQAILDETKGDYEKILVALCGGN
# Key:
# Assay in all cases: glycan array binding signal (z-score within array); higher = stronger binding
# Settings in all cases: glycan notation: IUPAC condensed, linker removed
# [1] = molecular target: Fuc(a1-2)[GalNAc(a1-3)]Gal(b1-4)[Fuc(a1-3)]GlcNAc
# Method in brief: (§1)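 The Consortium for Functional Glycomics database supplied 3228 glycan arrays, of which those lacking an available protein sequence were dropped. The binding signal, a within-array Z-score, was averaged across arrays of the same protein sequence and across linkers. Negative scores can be read as non-binding.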
# [2] = molecular target: Fuc(a1-2)[GalNAc(a1-4)]Gal(b1-4)GlcNAc
# Method in brief: as §1
# Fuc(a1-3)GlcNAc = molecular target: Fuc(a1-3)GlcNAc
# Method in brief: as §1
# [3] = molecular target: Fuc(a1-3)[Gal(b1-4)]Glc6S
# Method in brief: as §1
# [4] = molecular target: Fuc(a1-3)[Gal(b1-4)]GlcNAc
# Method in brief: as §1
# [5] = molecular target: Fuc(a1-3)[Gal(b1-4)]GlcNAc(b1-3)Gal(b1-3)[Fuc(a1-4)]GlcNAc
# Method in brief: as §1
# [6] = molecular target: Fuc(a1-3)[Gal(b1-4)]GlcNAc(b1-4)Gal(b1-4)[Fuc(a1-3)]GlcNAc
# Method in brief: as §1
# [7] = molecular target: Fuc(a1-3)[Gal(b1-4)]GlcNAc(b1-4)Gal(b1-4)[Fuc(a1-3)]GlcNAc(b1-4)Gal(b1-4)[Fuc(a1-3)]GlcNAc
# Method in brief: as §1
# [8] = molecular target: Fuc(a1-3)[Gal(b1-4)]GlcNAc6S
# Method in brief: as §1
# [9] = molecular target: Fuc(a1-3)[Gal3S(b1-4)]Glc
# Method in brief: as §1
# [10] = molecular target: Fuc(a1-3)[Gal3S(b1-4)]Glc6S
# Method in brief: as §1
# [11] = molecular target: Fuc(a1-3)[Gal3S(b1-4)]GlcNAc
# Method in brief: as §1
# [12] = molecular target: Fuc(a1-3)[Gal3S(b1-4)]GlcNAc6S
# Method in brief: as §1
# [13] = molecular target: Fuc(a1-3)[GalNAc(b1-4)]Gal(b1-4)GlcNAc
# Method in brief: as §1
# Fuc(a1-4)GlcNAc = molecular target: Fuc(a1-4)GlcNAc
# Method in brief: as §1
# Fuc(b1-3)GlcNAc = molecular target: Fuc(b1-3)GlcNAc
# Method in brief: as §1
# Gal(a1-2)Gal = molecular target: Gal(a1-2)Gal
# Method in brief: as §1
# Gal(a1-3)Gal = molecular target: Gal(a1-3)Gal
# Method in brief: as §1
# Gal(a1-3)Gal(b1-3)Glc = molecular target: Gal(a1-3)Gal(b1-3)Glc
# Method in brief: as §1
# Gal(a1-3)Gal(b1-3)GlcNAc = molecular target: Gal(a1-3)Gal(b1-3)GlcNAc
# Method in brief: as §1
# Gal(a1-3)Gal(b1-4)GlcNAc = molecular target: Gal(a1-3)Gal(b1-4)GlcNAc
# Method in brief: as §1
# [14] = molecular target: Gal(a1-3)Gal(b1-4)[Fuc(a1-3)]GalNAc
# Method in brief: as §1
# Gal(a1-3)GlcNAc = molecular target: Gal(a1-3)GlcNAc
# Method in brief: as §1
# [15] = molecular target: Gal(a1-3)[Gal(a1-4)]Gal(b1-4)GlcNAc
# Method in brief: as §1
# Gal(a1-4)Gal(b1-4)Gal = molecular target: Gal(a1-4)Gal(b1-4)Gal
# Method in brief: as §1
# Gal(a1-4)Gal(b1-4)GalNAc = molecular target: Gal(a1-4)Gal(b1-4)GalNAc
# Method in brief: as §1
# Gal(a1-4)GlcNAc = molecular target: Gal(a1-4)GlcNAc
# Method in brief: as §1
# Gal(a1-6)Glc = molecular target: Gal(a1-6)Glc
# Method in brief: as §1
# Gal(b1-2)Gal = molecular target: Gal(b1-2)Gal
# Method in brief: as §1
# Gal(b1-3)Gal = molecular target: Gal(b1-3)Gal
# Method in brief: as §1
# Gal(b1-3)GalNAc = molecular target: Gal(b1-3)GalNAc
# Method in brief: as §1
# [16] = molecular target: Gal(b1-3)GalNAc(b1-3)Gal(a1-4)Gal(b1-4)Glc
# Method in brief: as §1
# [17] = molecular target: Gal(b1-3)GalNAc(b1-3)Gal(b1-4)Glc
# Method in brief: as §1
# [18] = molecular target: Gal(b1-3)GalNAc(b1-3)Gal(b1-4)GlcNAc
# Method in brief: as §1
# [19] = molecular target: Gal(b1-3)GalNAc(b1-4)Gal(b1-4)Glc
# Method in brief: as §1
# [20] = molecular target: Gal(b1-3)GalNAc(b1-4)[Neu5Ac(a2-3)]Gal(b1-4)Glc
# Method in brief: as §1
# [21] = molecular target: Gal(b1-3)GlcNAc(b1-3)Gal(b1-3)GlcNAc
# Method in brief: as §1
binder,measurement,setting,value
B1,glycan array binding signal (z-score),[1],-0.423
same,glycan array binding signal (z-score),[2],-0.458
same,glycan array binding signal (z-score),Fuc(a1-3)GlcNAc,-0.581
same,glycan array binding signal (z-score),[3],-0.369
same,glycan array binding signal (z-score),[4],-0.288
same,glycan array binding signal (z-score),[5],0.388
same,glycan array binding signal (z-score),[6],-0.418
same,glycan array binding signal (z-score),[7],-0.486
same,glycan array binding signal (z-score),[8],-0.304
same,glycan array binding signal (z-score),[9],-0.177
same,glycan array binding signal (z-score),[10],1.11
same,glycan array binding signal (z-score),[11],-0.087
same,glycan array binding signal (z-score),[12],1.69
same,glycan array binding signal (z-score),[13],-0.444
same,glycan array binding signal (z-score),Fuc(a1-4)GlcNAc,-0.485
same,glycan array binding signal (z-score),Fuc(b1-3)GlcNAc,-0.455
same,glycan array binding signal (z-score),Gal(a1-2)Gal,0.257
same,glycan array binding signal (z-score),Gal(a1-3)Gal,0.339
same,glycan array binding signal (z-score),Gal(a1-3)Gal(b1-3)Glc,0.066
same,glycan array binding signal (z-score),Gal(a1-3)Gal(b1-3)GlcNAc,0.062
same,glycan array binding signal (z-score),Gal(a1-3)Gal(b1-4)GlcNAc,0.064
same,glycan array binding signal (z-score),[14],-0.256
same,glycan array binding signal (z-score),Gal(a1-3)GlcNAc,-0.249
same,glycan array binding signal (z-score),[15],-0.43
same,glycan array binding signal (z-score),Gal(a1-4)Gal(b1-4)Gal,0.574
same,glycan array binding signal (z-score),Gal(a1-4)Gal(b1-4)GalNAc,0.06
same,glycan array binding signal (z-score),Gal(a1-4)GlcNAc,-0.321
same,glycan array binding signal (z-score),Gal(a1-6)Glc,1.29
same,glycan array binding signal (z-score),Gal(b1-2)Gal,0.027
same,glycan array binding signal (z-score),Gal(b1-3)Gal,0.003
same,glycan array binding signal (z-score),Gal(b1-3)GalNAc,0.031
same,glycan array binding signal (z-score),[16],-0.331
same,glycan array binding signal (z-score),[17],-0.151
same,glycan array binding signal (z-score),[18],-0.629
same,glycan array binding signal (z-score),[19],-0.032
same,glycan array binding signal (z-score),[20],-0.32
same,glycan array binding signal (z-score),[21],-0.355
